About 40 (0.04%) of roughly 110,000 compounds were called active. The shares of active, inactive and inconclusive entries below differ from those in the screen. The call rests on the fitted dose curve; in most records, active means well fitted curve in the direction sought with a large enough effect in the signal ratio (not every such curve was filed as active); inconclusive means small, poorly fitted or top-dose-only effect, or a change in a side signal; inactive means flat fitted curve, though single readings scatter; the % refers to the signal ratio. Potencies beside an inconclusive call are fits to weak or partial responses and may not hold up.
Assay: IkB Signaling;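 on IkBa stabilization activation: 0% = basal untreated cells and 100% = reference inhibitor full response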
Conditions: ABC-DLBCL IkBa-CBG/CBR dual luciferase ratio (green luciferase fused to IkBa over red control in OCI-Ly3 lymphoma cells), 4 h, scaled: untreated 0%
In short: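 In this assay, an IκBα–CBG68 fusion accumulates when IKK-driven degradation is blocked; native CBR normalizes for cell number. OCI-Ly3 cells were treated 4 h with compound and doxycycline, then green and red light read after Chroma-Glo addition.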

[1] = IkBa stabilization activation: at 57.1 µM (top of the series), proteasome inhibitor 100% unless noted
Potency means the concentration at half of the fitted maximal effect.

Structure (SMILES): CCC1Oc2ccccc2N(CC(=O)NCc2cc(OC)ccc2OC)C1=O (stereo not given)
- IkBa stabilization activation [1]: inconclusive: 1.41% [signal inhibitor]

Structure (SMILES): O=c1[nH]c2ccccc2n1CCCSCCCn1c(=O)[nH]c2ccccc21
- IkBa stabilization activation [1]: inconclusive: -2.45% [signal inhibitor]

Structure (SMILES): CCCC(=O)N1CCc2cc(OC)c(OC)cc2C1COc1ccc(C(=O)OC)cc1 (stereo not given)
- IkBa stabilization activation [1]: inactive

Structure (SMILES): O=C(Nc1nc2ccccc2n1Cc1ccccc1)c1ccco1
- Potency [1]: inconclusive: 31.6 µM [rising, partial curve]

Structure (SMILES): O=C(Oc1cccc2cccnc12)c1cccs1
- IkBa stabilization activation [1]: inconclusive: 16.3%

Structure (SMILES): COc1cccc(CNCc2cccn2-c2nnc(N3CCN(c4ccccc4)CC3)s2)c1
- IkBa stabilization activation [1]: inconclusive: -0.983% [signal inhibitor]

Structure (SMILES): COc1ccc(-c2[nH]ncc2C(=O)NCc2cccc(OC)c2)cc1
- IkBa stabilization activation [1]: inconclusive: 0.861% [signal inhibitor]

Structure (SMILES): CCOc1cccc2cc(-c3cn4c(n3)sc3ccccc34)c(=O)oc12
- Potency [1]: inconclusive: 1.58 µM [signal inhibitor]

Structure (SMILES): Cc1ccsc1CN(C(=O)COc1ccc(Cl)cc1)C1CCS(=O)(=O)C1 (stereo not given)
- IkBa stabilization activation [1]: inconclusive: 4.65% [signal inhibitor]

Structure (SMILES): O=S(=O)(c1ccc2c(c1)OCCO2)N1CCC(c2nc3ccc(Cl)cc3[nH]2)CC1
- IkBa stabilization activation [1]: inconclusive: -2.08% [signal inhibitor]

Structure (SMILES): O=C(CCNc1ccc(F)c(Cl)c1)c1ccco1
- IkBa stabilization activation [1]: inconclusive: -1.48% [signal inhibitor]

Structure (SMILES): COc1ccccc1CCC(=O)Nc1nc2ccccc2[nH]1
- Potency [1]: inconclusive: 20 µM [signal inhibitor, partial curve]

Structure (SMILES): Cc1ccc(CNC(=O)CSc2nnc(C)c3c(C)n(-c4ccccc4)nc23)cc1
- IkBa stabilization activation [1]: inconclusive: 1.11% [signal inhibitor]

Structure (SMILES): O=C(c1ccc(S(=O)(=O)N2CCCCC2)cc1)N1CCN(Cc2ccc3c(c2)OCO3)CC1
- IkBa stabilization activation [1]: inconclusive: 2.04% [signal inhibitor]

Structure (SMILES): COc1ccccc1N1CCN(C(=O)C(Cc2ccccc2)NC(=O)C2CCCCC2)CC1 (stereo not given)
- IkBa stabilization activation [1]: inconclusive: 8.81% [signal inhibitor]

Structure (SMILES): CC1CCN(S(=O)(=O)c2ccc3c(ccc(=O)n3CC(=O)NCc3ccccc3Cl)c2)CC1
- IkBa stabilization activation [1]: inconclusive: 1.61% [signal inhibitor]

Structure (SMILES): Cc1cc(OCC(=O)NC(Cc2c[nH]c3ccccc23)C(=O)O)ccc1Cl (stereo not given)
- IkBa stabilization activation [1]: inconclusive: 6.43% [signal inhibitor]

Structure (SMILES): CCOC(=O)c1[nH]c(C)c(CCC(=O)Nc2ccccc2C(=O)OC)c1C
- IkBa stabilization activation [1]: inconclusive: 0.302% [signal inhibitor]

Structure (SMILES): CCc1nn(CC(=O)NCCc2ccc(Cl)cc2)c(=O)c2cc3ccccc3n12
- IkBa stabilization activation [1]: inconclusive: 6.77% [signal inhibitor]

Structure (SMILES): Cc1ccc(CNC(=O)c2ccc3c(c2)N(Cc2ccccc2Cl)C(=O)CS3)cc1
- IkBa stabilization activation [1]: inconclusive: 1.29% [signal inhibitor]

Structure (SMILES): NC[C@@H]1O[C@H](c2ccccc2)Cc2c1ccc(O)c2O
- IkBa stabilization activation [1]: inactive

Structure (SMILES): CCOc1ccc2nc(N(Cc3cccnc3)C(=O)C3CCCCC3)sc2c1
- IkBa stabilization activation [1]: inconclusive: -1% [signal inhibitor]

Structure (SMILES): Cc1cccc(N2CCN(C(=O)c3oc(=O)c4ccccc4c3-c3ccccc3)CC2C)c1 (stereo not given)
- IkBa stabilization activation [1]: inconclusive: 0.623% [signal inhibitor]

Structure (SMILES): COc1ccc(Cn2c(CCC(=O)Nc3ccc(C)cc3C)nc3cccnc32)cc1
- IkBa stabilization activation [1]: inconclusive: 3.52% [signal inhibitor]

Structure (SMILES): CCCCOc1cc(C[C@@H]2CNC(=O)N2)ccc1OC
- IkBa stabilization activation [1]: inconclusive: 11.4% [signal activator]
- IkBa stabilization activation (at 57.1 µM (top of the series), proteasome inhibitor 100%): inactive: 0.0346%

Structure (SMILES): Cc1ccc2c(nc3s/c(=C/c4cccs4)c(=O)n32)c1C
- IkBa stabilization activation [1]: inconclusive: 12.2% [signal inhibitor]

Structure (SMILES): COc1ccc(OC)c(C(=O)COC(=O)c2ccccc2O)c1
- IkBa stabilization activation [1]: inactive

Structure (SMILES): O=C(c1cc(Br)ccc1O)c1cc(Br)ccc1O
- IkBa stabilization activation [1]: inactive: 0.00381% [at 11.4 µM, scaled: untreated 0%, proteasome inhibitor 100%]

Structure (SMILES): Cc1oc2ccc(O)c(CN3CCN(C)CC3)c2c1C(=O)Nc1ccccc1
- IkBa stabilization activation [1]: inconclusive: 1.61% [signal inhibitor]

Structure (SMILES): Cc1cccc(CSc2nc(=O)c3c(n2C)NC(=O)CC3c2cc(F)cc(F)c2)c1 (stereo not given)
- IkBa stabilization activation [1]: inconclusive: 3.61% [signal inhibitor]

Structure (SMILES): O=C(CCS(=O)(=O)c1ccc(Br)s1)N1CCc2ccccc21
- IkBa stabilization activation [1]: inactive

Structure (SMILES): CCOC(=O)C1=C(CN2CCN(c3ccc(F)cc3)CC2)NC(=O)NC1c1cccs1 (stereo not given)
- IkBa stabilization activation [1]: inconclusive: 1.7% [signal inhibitor]

Structure (SMILES): CC(=O)Nc1ccc(NC(=O)C2CCN(S(=O)(=O)c3ccc4c(c3)CCCC(=O)N4)CC2)cc1
- IkBa stabilization activation [1]: inactive

Structure (SMILES): COc1ccc(NC(=O)CSC2=Nc3ccccc3N=C(c3ccc(F)cc3)C2)cc1OC
- IkBa stabilization activation [1]: inactive

Structure (SMILES): CCOc1cccc2cc(C(=O)NCc3cccnc3)c(=O)oc12
- Potency [1]: inconclusive: 3.98 µM [signal inhibitor, full curve]

Structure (SMILES): Cc1cccn2c(N)c(-c3ccccc3)nc12
- IkBa stabilization activation [1]: inconclusive: 7.24% [signal inhibitor]

Structure (SMILES): CN(C)c1cccc(C(=O)Nc2nc3ccc(S(=O)(=O)N4CCCC4)cc3s2)c1
- IkBa stabilization activation [1]: inconclusive: 1.39% [signal inhibitor]

Structure (SMILES): O=C(Nc1ccc2c(c1)OCCO2)C1CCCN(S(=O)(=O)Cc2ccccc2)C1 (stereo not given)
- IkBa stabilization activation [1]: inconclusive: 1.88% [signal inhibitor]

Structure (SMILES): COc1ccccc1-c1nnc(SCC(=O)NCc2c(C)c(Cl)cc(C(C)C)c2O)o1
- IkBa stabilization activation [1]: inconclusive: -5.48% [signal inhibitor]

Structure (SMILES): CN(C)c1ccc(CNC(=O)CN2C(=O)CSc3ccc(S(=O)(=O)N4CCCC4)cc32)cc1
- IkBa stabilization activation [1]: inactive

Structure (SMILES): O=C(Cn1c(=O)nc(-c2ccccc2)c2ccccc21)N1CCN(c2ccc(F)cc2)CC1
- IkBa stabilization activation [1]: inconclusive: -0.55% [signal inhibitor]

Structure (SMILES): COc1cc(OC)c(NC2=C(c3ccc(C(F)(F)F)cc3)C(=O)c3ccccc32)cc1Cl
- IkBa stabilization activation [1]: inconclusive: -0.706% [signal inhibitor]

Structure (SMILES): O=C(CS(=O)(=O)c1cccc2nsnc12)NCc1ccccc1
- IkBa stabilization activation [1]: inactive

Structure (SMILES): COc1ccc(NC(=O)C2CC(c3cc(OC)c(OC)c(OC)c3)=NO2)cc1OC (stereo not given)
- IkBa stabilization activation [1]: inactive

Structure (SMILES): CC(C)Oc1ccccc1NC(=O)CSc1nccn1C
- IkBa stabilization activation [1]: inconclusive: 10.1% [signal inhibitor]

Structure (SMILES): O=C(O)CSc1nc2ccc(NC(=O)COc3ccc(Cl)cc3)cc2s1
- IkBa stabilization activation [1]: inconclusive: 7.43% [signal inhibitor]

Structure (SMILES): C#CCn1c(=O)n(-c2cccc(Cl)c2C)c(=O)c2c3c(sc21)CN(C(C)=O)CC3
- IkBa stabilization activation [1]: inconclusive: 11.1% [signal inhibitor]

Structure (SMILES): Cc1ccc(C)c(N2CCN(CCCNC(=O)c3cnn(-c4ccc(F)cc4)c3C3CCN(C(=O)OC(C)(C)C)CC3)CC2)c1
- IkBa stabilization activation [1]: inconclusive: -4.25% [signal inhibitor]

Structure (SMILES): COc1ccc(NC(=O)C2CCCN(c3c4c(nc5ncnn35)CCC4)C2)cc1 (stereo not given)
- IkBa stabilization activation [1]: inactive

Structure (SMILES): COc1ccc(-c2cnc(C)o2)cc1S(=O)(=O)Nc1ccc(OC(F)(F)F)cc1
- IkBa stabilization activation [1]: inconclusive: 7.14% [signal inhibitor]

Structure (SMILES): O=C(COc1ccccc1)Nc1cccc(-c2nnc(-c3ccccc3)o2)c1
- IkBa stabilization activation [1]: inconclusive: 6.56% [signal inhibitor]

Structure (SMILES): COc1ccccc1CNC(=O)CSc1ccc(-c2sc(-c3ccccc3)nc2C)nn1
- IkBa stabilization activation [1]: inactive

Structure (SMILES): CN(C(=O)CSc1nnc(COc2ccccc2)o1)c1ccccc1
- IkBa stabilization activation [1]: inconclusive: 11.1% [signal inhibitor]

Structure (SMILES): CCOc1ccc(OCC)c(NC(=O)c2cc3ccccn3n2)c1
- IkBa stabilization activation [1]: inconclusive: 4.79% [signal inhibitor]

Structure (SMILES): CCOC(=O)c1c(NC(=O)CSc2nnnn2C)sc(C)c1-c1ccc(C)cc1
- IkBa stabilization activation [1]: inconclusive: 11.5% [signal inhibitor]

Structure (SMILES): Cc1ccc2[nH]c(=S)cc(C)c2c1
- IkBa stabilization activation [1]: inactive

Structure (SMILES): Cn1c(=O)c2c(nc(NCCCO)n2Cc2cccc(Br)c2)n(C)c1=O
- IkBa stabilization activation [1]: inconclusive: 1.38% [signal inhibitor]

Structure (SMILES): O=C(Nc1sc2c(c1C(=O)Nc1ccccc1)CCC2)c1ccc(Br)cc1
- Potency [1]: inconclusive: 12.6 µM [signal inhibitor, partial curve]

Structure (SMILES): COC(=O)c1ccc(NC(=O)CSc2nnc3c4ccccc4n(C(C)C)c3n2)cc1
- IkBa stabilization activation [1]: inconclusive: 1.16% [signal inhibitor]

Structure (SMILES): CN1CCN(Cc2nc3c(c(=O)n(C)c(=O)n3C)n2Cc2ccccc2Cl)CC1
- Potency [1]: inconclusive: 25.1 µM [signal inhibitor, partial curve]

Structure (SMILES): Cc1ccc2c(=O)c(C(=O)c3ccc(F)cc3)cn(CC(=O)Nc3ccc4c(c3)OCCO4)c2n1
- IkBa stabilization activation [1]: inconclusive: 7.54% [signal inhibitor]

Structure (SMILES): Cc1ccccc1-c1cc(-c2ccccc2O)n[nH]1
- IkBa stabilization activation [1]: inconclusive: 6.74% [signal inhibitor]

Structure (SMILES): Cc1cc(=O)[nH]c(SCCOc2ccc(OC(C)C)cc2)n1
- IkBa stabilization activation [1]: inactive

Structure (SMILES): O=C(CSc1nccn1C1CCCC1)Nc1cc(C(F)(F)F)ccc1Cl
- IkBa stabilization activation [1]: inconclusive: -0.186% [signal inhibitor]

Structure (SMILES): O=C(c1ccc2c(c1)N(Cc1ccccc1)C(=O)c1ccccc1S2(=O)=O)N1CCc2ccccc21
- IkBa stabilization activation [1]: inconclusive: 1.47% [signal inhibitor]

Structure (SMILES): CCCNC(=O)CN1C(=O)COc2ccc(S(=O)(=O)N3CCC(C)CC3)cc21
- IkBa stabilization activation [1]: inconclusive: -1.9% [signal inhibitor]

Structure (SMILES): Cc1c(NC(=O)C(C)(C)Oc2ccc(Cl)cc2)cccc1-c1nc2ccccc2o1
- IkBa stabilization activation [1]: inconclusive: 5.72% [signal inhibitor]

Structure (SMILES): NC1=NC(c2cccc(Cl)c2)n2c(nc3ccccc32)N1 (stereo not given)
- IkBa stabilization activation [1]: inactive

Structure (SMILES): O=C(Nc1cccc(Cl)c1N1CCCC1)c1ccc(Br)o1
- IkBa stabilization activation [1]: inactive

From PubChem BioAssay AID445 (National Center for Advancing Translational Sciences (NCATS), 2006)
